# The list shows a part of the results. At the low end of the ranking the order means little.
# Molecular target: AGO2 WT (phosphosite mutant background) S387D + S824A + S828D + S831D + S834A (UniProt Q9UKV8)
# Assay: RNA Bind-n-Seq (nitrocellulose filter binding and sequencing)
# Details: constant regions annealed to DNA blockers; guide miR-122 5' phosphate; 30 mM Tris pH 8.0, 100 mM potassium acetate, 2 mM magnesium acetate, 0.5 mM TCEP, 0.005% NP-40, 0.01 mg/ml yeast tRNA; 3 nM AGO2-miR-122, 100 nM RNA library …; high values mean tight binding
row,Sequence,binding signal (fold enrichment over input)
1,GAGUUCUACAGUCCGACGAUCCCAACGCACCCCACACCUGGAAUUCUCGGGUGCCAA / UGGAGUGUGACAAUGGUGUUUG / GATCGTCGGACTGTAGAACTC / TTGGCACCCGAGAATTCCA,0.164
2,GAGUUCUACAGUCCGACGAUCCCAACAUGUUCCACACCUGGAAUUCUCGGGUGCCAA / UGGAGUGUGACAAUGGUGUUUG / GATCGTCGGACTGTAGAACTC / TTGGCACCCGAGAATTCCA,0.148
3,GAGUUCUACAGUCCGACGAUCCCAACACACUUUACACCUGGAAUUCUCGGGUGCCAA / UGGAGUGUGACAAUGGUGUUUG / GATCGTCGGACTGTAGAACTC / TTGGCACCCGAGAATTCCA,0.133
4,GAGUUCUACAGUCCGACGAUCCCAACGUGUUCCACACCUGGAAUUCUCGGGUGCCAA / UGGAGUGUGACAAUGGUGUUUG / GATCGTCGGACTGTAGAACTC / TTGGCACCCGAGAATTCCA,0.112
5,GAGUUCUACAGUCCGACGAUCCCAACACGCCCCACACCUGGAAUUCUCGGGUGCCAA / UGGAGUGUGACAAUGGUGUUUG / GATCGTCGGACTGTAGAACTC / TTGGCACCCGAGAATTCCA,0.123
6,GAGUUCUACAGUCCGACGAUCCCAACGCACCUCACACCUGGAAUUCUCGGGUGCCAA / UGGAGUGUGACAAUGGUGUUUG / GATCGTCGGACTGTAGAACTC / TTGGCACCCGAGAATTCCA,0.17
7,GAGUUCUACAGUCCGACGAUCCCAACGUACCCCACACCUGGAAUUCUCGGGUGCCAA / UGGAGUGUGACAAUGGUGUUUG / GATCGTCGGACTGTAGAACTC / TTGGCACCCGAGAATTCCA,0.118
8,GAGUUCUACAGUCCGACGAUCCCAACGCGUUCCACACCUGGAAUUCUCGGGUGCCAA / UGGAGUGUGACAAUGGUGUUUG / GATCGTCGGACTGTAGAACTC / TTGGCACCCGAGAATTCCA,0.119
9,GAGUUCUACAGUCCGACGAUCCCAACACACCCUGCACCUGGAAUUCUCGGGUGCCAA / UGGAGUGUGACAAUGGUGUUUG / GATCGTCGGACTGTAGAACTC / TTGGCACCCGAGAATTCCA,0.115
10,GAGUUCUACAGUCCGACGAUCCCAACGCAUCUCACACCUGGAAUUCUCGGGUGCCAA / UGGAGUGUGACAAUGGUGUUUG / GATCGTCGGACTGTAGAACTC / TTGGCACCCGAGAATTCCA,0.126
11,GAGUUCUACAGUCCGACGAUCCCAACAUGUCCCACACCUGGAAUUCUCGGGUGCCAA / UGGAGUGUGACAAUGGUGUUUG / GATCGTCGGACTGTAGAACTC / TTGGCACCCGAGAATTCCA,0.155
12,GAGUUCUACAGUCCGACGAUCCCAACGUGCCCCACACCUGGAAUUCUCGGGUGCCAA / UGGAGUGUGACAAUGGUGUUUG / GATCGTCGGACTGTAGAACTC / TTGGCACCCGAGAATTCCA,0.123
13,GAGUUCUACAGUCCGACGAUCCCAACGCACUCUGCACCUGGAAUUCUCGGGUGCCAA / UGGAGUGUGACAAUGGUGUUUG / GATCGTCGGACTGTAGAACTC / TTGGCACCCGAGAATTCCA,0.143
14,GAGUUCUACAGUCCGACGAUCCCAACAUAUCCCACACCUGGAAUUCUCGGGUGCCAA / UGGAGUGUGACAAUGGUGUUUG / GATCGTCGGACTGTAGAACTC / TTGGCACCCGAGAATTCCA,0.119
15,GAGUUCUACAGUCCGACGAUCCCAACGCGUUUCACACCUGGAAUUCUCGGGUGCCAA / UGGAGUGUGACAAUGGUGUUUG / GATCGTCGGACTGTAGAACTC / TTGGCACCCGAGAATTCCA,0.125
16,GAGUUCUACAGUCCGACGAUCCCAACAUAUUCCACACCUGGAAUUCUCGGGUGCCAA / UGGAGUGUGACAAUGGUGUUUG / GATCGTCGGACTGTAGAACTC / TTGGCACCCGAGAATTCCA,0.121
17,GAGUUCUACAGUCCGACGAUCCCAACACACUUCACACCUGGAAUUCUCGGGUGCCAA / UGGAGUGUGACAAUGGUGUUUG / GATCGTCGGACTGTAGAACTC / TTGGCACCCGAGAATTCCA,0.24
18,GAGUUCUACAGUCCGACGAUCCCAACGCAUUCCACACCUGGAAUUCUCGGGUGCCAA / UGGAGUGUGACAAUGGUGUUUG / GATCGTCGGACTGTAGAACTC / TTGGCACCCGAGAATTCCA,0.182

row,Sequence,binding signal (fold enrichment over input)
1,GAGUUCUACAGUCCGACGAUCCCAACACACUCUACACCUGGAAUUCUCGGGUGCCAA / UGGAGUGUGACAAUGGUGUUUG / GATCGTCGGACTGTAGAACTC / TTGGCACCCGAGAATTCCA,0.587
2,GAGUUCUACAGUCCGACGAUCCCAACGUGCUCCACACCUGGAAUUCUCGGGUGCCAA / UGGAGUGUGACAAUGGUGUUUG / GATCGTCGGACTGTAGAACTC / TTGGCACCCGAGAATTCCA,0.17
3,GAGUUCUACAGUCCGACGAUCCCAACGCACCCUGCACCUGGAAUUCUCGGGUGCCAA / UGGAGUGUGACAAUGGUGUUUG / GATCGTCGGACTGTAGAACTC / TTGGCACCCGAGAATTCCA,0.116
4,GAGUUCUACAGUCCGACGAUCCCAACAUACCUCACACCUGGAAUUCUCGGGUGCCAA / UGGAGUGUGACAAUGGUGUUUG / GATCGTCGGACTGTAGAACTC / TTGGCACCCGAGAATTCCA,0.138
5,GAGUUCUACAGUCCGACGAUCCCAACACGUUCUACACCUGGAAUUCUCGGGUGCCAA / UGGAGUGUGACAAUGGUGUUUG / GATCGTCGGACTGTAGAACTC / TTGGCACCCGAGAATTCCA,0.0986
6,GAGUUCUACAGUCCGACGAUCCCAACGUACUCCACACCUGGAAUUCUCGGGUGCCAA / UGGAGUGUGACAAUGGUGUUUG / GATCGTCGGACTGTAGAACTC / TTGGCACCCGAGAATTCCA,0.714
7,GAGUUCUACAGUCCGACGAUCCCAACGCACCCUACACCUGGAAUUCUCGGGUGCCAA / UGGAGUGUGACAAUGGUGUUUG / GATCGTCGGACTGTAGAACTC / TTGGCACCCGAGAATTCCA,0.113
8,GAGUUCUACAGUCCGACGAUCCCAACGCACCUUACACCUGGAAUUCUCGGGUGCCAA / UGGAGUGUGACAAUGGUGUUUG / GATCGTCGGACTGTAGAACTC / TTGGCACCCGAGAATTCCA,0.132
9,GAGUUCUACAGUCCGACGAUCCCAACGUAUCCCACACCUGGAAUUCUCGGGUGCCAA / UGGAGUGUGACAAUGGUGUUUG / GATCGTCGGACTGTAGAACTC / TTGGCACCCGAGAATTCCA,0.162
10,GAGUUCUACAGUCCGACGAUCCCAACACGCUUCACACCUGGAAUUCUCGGGUGCCAA / UGGAGUGUGACAAUGGUGUUUG / GATCGTCGGACTGTAGAACTC / TTGGCACCCGAGAATTCCA,0.133
11,GAGUUCUACAGUCCGACGAUCCCAACGUACUUCACACCUGGAAUUCUCGGGUGCCAA / UGGAGUGUGACAAUGGUGUUUG / GATCGTCGGACTGTAGAACTC / TTGGCACCCGAGAATTCCA,0.125
12,GAGUUCUACAGUCCGACGAUCCCAACGUGUCUCACACCUGGAAUUCUCGGGUGCCAA / UGGAGUGUGACAAUGGUGUUUG / GATCGTCGGACTGTAGAACTC / TTGGCACCCGAGAATTCCA,0.126
13,GAGUUCUACAGUCCGACGAUCCCAACACGUCUUACACCUGGAAUUCUCGGGUGCCAA / UGGAGUGUGACAAUGGUGUUUG / GATCGTCGGACTGTAGAACTC / TTGGCACCCGAGAATTCCA,0.13
14,GAGUUCUACAGUCCGACGAUCCCAACACAUUCCGCACCUGGAAUUCUCGGGUGCCAA / UGGAGUGUGACAAUGGUGUUUG / GATCGTCGGACTGTAGAACTC / TTGGCACCCGAGAATTCCA,0.0998
15,GAGUUCUACAGUCCGACGAUCCCAACGCAUUUUACACCUGGAAUUCUCGGGUGCCAA / UGGAGUGUGACAAUGGUGUUUG / GATCGTCGGACTGTAGAACTC / TTGGCACCCGAGAATTCCA,0.119
16,GAGUUCUACAGUCCGACGAUCCCAACGCGCUUCACACCUGGAAUUCUCGGGUGCCAA / UGGAGUGUGACAAUGGUGUUUG / GATCGTCGGACTGTAGAACTC / TTGGCACCCGAGAATTCCA,0.123
17,GAGUUCUACAGUCCGACGAUCCCAACGCGUCCCACACCUGGAAUUCUCGGGUGCCAA / UGGAGUGUGACAAUGGUGUUUG / GATCGTCGGACTGTAGAACTC / TTGGCACCCGAGAATTCCA,0.126

# Source: article PMC12529666
